# Assay results from article PMC4336329 (PLoS ONE, 2015).
# The whole screen tested about 310,000 compounds, of which about 14,000 (4.5%) showed an effect of 50% or more. The effect is printed as a negative number. Some of the results follow.
# Target: human ether-à-go-go-related gene (hERG) potassium channel (human, UniProt Q12809)
# Assay: primary screen, population patch clamp on CHO cells stably expressing hERG
# 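Note: peak tail current of the secondary pulse compared with the same well before compound.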
# human ether-à-go-go-related gene (hERG) potassium channel, sequence (Q12809 whole entry, looked up): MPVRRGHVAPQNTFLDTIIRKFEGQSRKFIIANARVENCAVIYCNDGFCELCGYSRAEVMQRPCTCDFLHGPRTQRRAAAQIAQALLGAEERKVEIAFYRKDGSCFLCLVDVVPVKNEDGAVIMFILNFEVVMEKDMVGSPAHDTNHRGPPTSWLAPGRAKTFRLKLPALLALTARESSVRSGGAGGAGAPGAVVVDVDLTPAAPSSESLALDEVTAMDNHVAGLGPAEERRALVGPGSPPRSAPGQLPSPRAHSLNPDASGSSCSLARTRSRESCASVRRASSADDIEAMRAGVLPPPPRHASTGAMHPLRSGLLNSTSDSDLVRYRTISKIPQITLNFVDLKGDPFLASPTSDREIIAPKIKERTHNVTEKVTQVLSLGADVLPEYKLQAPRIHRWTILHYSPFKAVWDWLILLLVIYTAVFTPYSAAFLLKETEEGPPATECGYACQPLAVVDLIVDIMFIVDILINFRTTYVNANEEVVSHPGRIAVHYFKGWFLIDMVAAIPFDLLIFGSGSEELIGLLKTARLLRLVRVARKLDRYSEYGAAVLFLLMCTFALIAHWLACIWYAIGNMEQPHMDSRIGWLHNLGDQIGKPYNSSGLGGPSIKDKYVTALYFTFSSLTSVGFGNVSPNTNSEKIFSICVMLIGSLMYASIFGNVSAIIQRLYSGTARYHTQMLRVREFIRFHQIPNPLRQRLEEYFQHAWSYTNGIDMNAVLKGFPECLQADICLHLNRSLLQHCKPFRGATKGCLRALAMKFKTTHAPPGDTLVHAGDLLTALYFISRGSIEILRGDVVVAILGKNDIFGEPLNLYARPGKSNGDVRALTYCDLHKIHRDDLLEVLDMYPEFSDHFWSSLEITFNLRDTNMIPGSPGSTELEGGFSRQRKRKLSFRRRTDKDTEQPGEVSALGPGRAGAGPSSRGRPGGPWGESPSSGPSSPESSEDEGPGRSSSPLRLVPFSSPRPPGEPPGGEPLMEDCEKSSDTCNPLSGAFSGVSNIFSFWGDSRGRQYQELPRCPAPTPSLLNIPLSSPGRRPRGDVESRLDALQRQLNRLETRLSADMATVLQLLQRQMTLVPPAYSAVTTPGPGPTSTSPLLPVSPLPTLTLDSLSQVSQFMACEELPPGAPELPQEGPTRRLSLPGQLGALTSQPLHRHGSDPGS
row,SMILES,"hERG current change (%, negative = inhibition) at 10uM"
1,CCn1cc(C(=O)Nc2ccccc2)c(=O)c2ccc(C)nc21,25.4%
2,O=C(O)c1cc(NC(=O)c2ccc3c(c2)C(=O)N(Cc2ccccc2)C3=O)cc(C(=O)O)c1,7.78%
3,O=C(CSc1nnc2scc(-c3ccccc3)n12)NCC1CCCO1 (stereo not shown),-1.45%
4,O=C(Nc1nnc(C2CCCCC2)s1)C1CC(=O)N(c2ccc(F)cc2)C1 (stereo not shown),13.4%
5,CCOc1ccc(-n2c(SCC(N)=O)nnc2-c2cccnc2)cc1,-5.57%
6,Cc1cc(=O)[nH]c(SCC(=O)NCc2ccc3c(c2)OCO3)n1,22.3%
7,COc1cc(S(=O)(=O)NC2CCCCC2)c(C)cc1C,4.88%
8,COc1ccc2c(c1)c(C(=O)O)c(C)n2-c1ccccc1,2.91%
9,O=C1c2ccccc2S(=O)(=O)N1Cc1c(F)cccc1Cl,-6.24%
10,O=C(Nc1ncnc2sc3c(c12)CCCCC3)c1ccc(F)cc1,10.7%
11,COc1ccc(C(=O)OCCN2CCOCC2)cc1.Cl,-4.71%
12,COc1ccc(-c2cc(C(F)(F)F)nc(N3CCCCCC3)n2)cc1,2.13%
13,O=c1[nH]c2ccsc2c(=O)n1-c1ccc(F)cc1,12.4%
14,CC(C)c1ccc(N(CC(=O)NCc2ccc(F)cc2)C(=O)c2csnn2)cc1,-32.5%
15,CCOc1ccc(/C=N/NC(=O)C(OC)c2ccccc2)cc1 (stereo not shown),-0.107%
16,Cc1ccc(-c2cc(C(=O)Nc3nccs3)c3ccccc3n2)o1,-0.32%
17,CCc1cc(=O)oc2cc(C)cc(OCC(=O)N3CCC(C(=O)NC(C)C)(c4ccccc4)CC3)c12,-43.6%
18,COc1ccc(-c2cn(CC3CCCCC3)nn2)cc1,15.3%
19,COCCNc1ccc([N+](=O)[O-])cc1C(=O)NC1CCCc2ccccc21 (stereo not shown),-40.8%
20,CC(C)(C)C(=O)/C=C/Nc1ccccc1O,4.35%
21,O=C(NC(=S)N1CCCCCC1)C1CC1,12.7%
22,O=C(CSc1ccccn1)N/N=C/c1ccccc1[N+](=O)[O-],-27.6%

row,SMILES,"hERG current change (%, negative = inhibition) at 10uM"
1,CC(=O)N1CCN(S(=O)(=O)c2cccc(C(=O)NNC(=O)COc3ccc(F)cc3)c2)CC1,-1.69%
2,Cc1c(N=Cc2ccc(Cl)o2)c(=O)n(-c2ccccc2)n1C,-1.96%
3,CCOc1ccc(-c2n[nH]c(C)c2Oc2ccccc2OC)c(O)c1,14%
4,O=C(O)c1ccc(NS(=O)(=O)c2cccc(C(=O)Nc3ccc([N+](=O)[O-])cc3)c2)cc1,18.8%
5,COc1cccc(C(=O)c2c[nH]c(C(=O)NCCCN(C)C)c2)c1,-4.75%
6,O=C(CNCC1CCCCC1)Nc1cccc(S(=O)(=O)N2CCOCC2)c1,21.7%
7,CCN(CC(=O)Nc1c(F)cccc1F)C(=O)c1ccc(S(=O)(=O)N2CCCCC2)cc1,-6.93%
8,COCCn1c(SCC(=O)Nc2cccc(C)n2)nnc1-c1ccco1,-11.5%
9,Cc1nnc2ccc(N3CCCC3)nn12,6.22%
10,COc1ccc(NC(=O)CSc2nc3scc(C)c3c(=O)[nH]2)cc1,14%
11,Cc1cccc(NC(=O)[C@@H]2CCCN2C(=O)OC(C)(C)C)c1C,14%
12,O=C(NC1CCCC1)c1ccccc1-c1ccccc1,12.1%
13,Cc1cc(OC(C)C(=O)Nc2cccnc2)ccc1Cl (stereo not shown),2.05%
14,CN(CC(=O)N1CCN(c2cccc(Cl)c2)CC1)S(=O)(=O)c1cccs1,-32.9%
15,Cc1cccc2c1N1C(=O)c3c(C(=O)O)cccc3C1CC2C (stereo not shown),-6.35%
16,COc1ccc(/C=N/NC2=NS(=O)(=O)c3ccccc32)cc1,12.8%
17,COc1ccc(/C(C)=N/NC(=O)CNC(=O)COc2ccccc2)c(OC)c1,16.1%
18,COc1ccccc1NC(=O)CN(C)S(=O)(=O)c1cc(C)ccc1OC,-12.9%
19,Cl.OCCNCc1cccc(OCc2ccc(Cl)cc2)c1,-12.9%
20,CCCC(C)C1(CC)C(=O)NC(=Nc2ccccc2)NC1=O (stereo not shown),2.53%
21,COc1ccc(OC)c(CN2CCN(C(=O)CNC(=O)c3cc(C)cc(C)c3)CC2)c1,-42.7%
22,Cc1ccc(S(=O)(=O)N(C)C)cc1NC(=S)N1CCCCC1CO (stereo not shown),11.6%

row,SMILES,"hERG current change (%, negative = inhibition) at 10uM"
1,CCCN(C(=O)Cc1c(C(=O)O)n(C)c2ccccc12)c1cccc(C)c1,19.8%
2,Cc1ccc(NC(=O)CC(C)CC(=O)NCc2ccccc2)cc1Cl (stereo not shown),9.46%
3,Cc1csc(NC(=O)c2cc(=O)[nH]c3ccc(S(=O)(=O)N4CCOCC4)cc23)n1,25.1%
4,O=C(Nc1ccnn1C1CCN(C/C=C/c2ccccc2)CC1)c1ccccc1,-73.7%
5,CC1CCCN(C(=O)C2CCN(c3nc(-c4ccccc4)nc4c3CCC4)CC2)C1 (stereo not shown),-55.1%
6,CN(C(=O)C1CCC(=O)N(Cc2cccc(F)c2)C1)C1CCCCC1 (stereo not shown),-11.2%
7,C=CCSc1nnc(NC(=O)c2ccc(NC(C)=O)cc2)s1,1.7%
8,CCCCCCCCCC(=O)N[C@H](CN1CCOCC1)[C@H](O)c1ccccc1.Cl,-16.6%
9,CC(NC(=O)c1ccc(Br)o1)C1CC2CCC1C2 (stereo not shown),-0.321%
10,Cc1ccnc(NC(=O)CCC(=O)N(CC(=O)NCCc2ccccc2)c2ccccc2F)c1,-10.6%
11,CSc1nnc(CNS(=O)(=O)c2ccc(F)cc2)n1C,19.7%
12,Cc1ccccc1N1CCN(CCCOc2ccc3c(C)cc(=O)oc3c2)CC1,-75.3%
13,Nc1nonc1-c1nc2ccccc2n1Cc1ccc(F)cc1,-9.25%
14,COc1ccc(N2CCN(C(=O)c3cccn4c(=O)c5ccccc5nc34)CC2)cc1,-60.1%
15,Cc1ccc(C)c(NCCC#N)c1,3.2%
16,COCCN1CC(=O)N(c2cccc(C)c2C)C(c2ccc(Cl)cc2)C1=O (stereo not shown),-14%
17,COc1ccc(-c2csc(Nc3ncccn3)n2)cc1C,16.8%
18,CCc1ccc(NC(=S)NCC2CCCN2CC)cc1 (stereo not shown),-32.2%
19,C=CCN1c2ccccc2[C@]23C[C@@H](C(=O)OC)N=C2NC(C(=O)OC)=C(C(=O)OC)[C@H]13,-18.6%
20,Cc1cccc(C)c1OC(=O)Cc1ccccc1,8.89%
21,O=C(CCc1nc2ccccc2c(=O)[nH]1)NCCN1C(=O)S/C(=C\c2ccc(Cl)cc2Cl)C1=O,0.73%
22,CCSC1=NCCN1S(=O)(=O)c1ccc(NC(C)=O)cc1,4.89%

row,SMILES,"hERG current change (%, negative = inhibition) at 10uM"
1,COc1ccc(C(=O)N/N=C/c2ccc(N3CCOCC3)s2)cc1OC,11.6%
2,Cc1ccc(NC(=O)CN2CCC(C(=O)c3ccc4c(c3)OCCO4)CC2)cc1,-44.7%
3,Cc1nnc(SCC(=O)c2ccccc2)n1Cc1ccccc1,3.11%
4,O=C(/C=C/c1cccc([N+](=O)[O-])c1)NCc1cccnc1,-14%
5,CCCc1nc2c(sc3nc4c(cc32)COC(C)(C)C4)c(=O)n1Cc1ccco1,-27%
6,O=C1CC(c2ccccc2)=NN1c1nc(-c2ccccc2)cs1,6.5%
7,COC(=O)C1=C(C)N(Cc2cccnc2)C(=O)/C1=C\c1cccs1,-89%
8,COc1cc(/C=C(\C#N)C(=O)Nc2ccc(SC(F)F)cc2)cc(OC)c1OC,-22.4%
9,COC(=O)c1ccc(NC(=O)COc2ccc(C3C(C#N)=C(N)Oc4c3ccc3ccccc43)cc2OC)cc1 (stereo not shown),8.25%
10,Cc1nnc(SCC(=O)Nc2ncc3c(n2)CC(c2ccccc2)CC3=O)s1 (stereo not shown),-4.67%
11,CC(=O)c1ccc(OCC(=O)Nc2ccccc2C(=O)NC2CC2)cc1,6.93%
12,CCN1CCN(Cc2ccc(NC(=O)c3ccc(C)c(NC(=O)C(=O)c4c[nH]c5ccccc45)c3)cc2C(F)(F)F)CC1.O=C(O)C(F)(F)F,7.78%
13,CC(=O)c1sc(NC(=O)CS(=O)(=O)c2ccc(F)cc2)nc1C,-22.1%
14,COc1ccccc1C(CNC(=O)c1ccc(C)c(S(=O)(=O)N2CCCCC2)c1)N(C)C (stereo not shown),-36.6%
15,Cc1ccc(-n2cc(CN(C)CCc3cn[nH]c3)c(-c3cccc(C)c3)n2)cc1,-68%
16,Cl.OCc1cc(CO)c(O)c(CCc2ccccc2)n1,13.7%
17,CCc1ccc(CN(C)C(=O)CCc2nnc(CCc3cccc(OC)c3)o2)nc1,-33.3%
18,CC(=O)c1c(C)[nH]c(C2=NNC(=NCc3ccccc3)SC2)c1C,25.9%
19,O=C(Nc1nc(-c2ccc(F)cc2)cs1)C1CCN(C(=O)c2ccc(F)cc2)CC1,-54.7%
20,CCc1nn(C(C)C(=O)NCCN2CCN(c3cccc(C)c3C)CC2)c(=O)c2cc3occc3n12 (stereo not shown),-65.3%
21,C=CCn1c(O)c(C(C)=NCCO)c(=O)[nH]c1=O,1.19%
22,COc1ccc(-c2nn(-c3ccccc3)cc2/C=C(\C#N)S(=O)(=O)c2ccccc2)cc1OC,23.7%
